# Some of the results follow.
# What was measured:
# HSkMC = human skeletal muscle cells; assay: cytotoxicity call (relative viability < 0.9); details: 10 µM
# HepG2 = assay: cytotoxicity call (relative viability < 0.9); details: 10 µM
# S. aureus RN4220 = assay: growth inhibition call (relative growth <= 0.2); details: 50 µM
SMILES,cytotoxicity call (HSkMC),cytotoxicity call (HepG2),growth inhibition call (S. aureus RN4220)
COCC#Cc1ccc2c(c1)O[C@H](CN(C)C(=O)Nc1ccc(OC)cc1)[C@@H](C)CN([C@@H](C)CO)S2(=O)=O,inactive,inactive,inactive
Cc1noc(C)c1S(=O)(=O)Nc1cccc2c1O[C@@H](CN(C)Cc1ccccc1)[C@@H](C)CN([C@@H](C)CO)C2=O,inactive,inactive,inactive
C[C@H]1CN([C@@H](C)CO)S(=O)(=O)c2ccc(C#CCN(C)C)cc2O[C@H]1CN(C)C(=O)C1CCCCC1,inactive,inactive,inactive
Cc1noc(C)c1S(=O)(=O)Nc1cccc2c1O[C@@H](CN(C)Cc1ccc(Oc3ccccc3)cc1)[C@@H](C)CN([C@@H](C)CO)C2=O,inactive,inactive,inactive
CC(C)NC(=O)N(C)C[C@H]1Oc2c(NS(=O)(=O)c3ccccc3)cccc2C(=O)N([C@@H](C)CO)C[C@@H]1C,inactive,inactive,inactive
C[C@@H]1CN([C@@H](C)CO)C(=O)c2cc(NS(=O)(=O)c3ccccc3)ccc2O[C@H]1CN(C)S(=O)(=O)c1ccc(F)cc1,inactive,inactive,inactive
C[C@@H]1CN([C@@H](C)CO)C(=O)c2cccc(NS(=O)(=O)c3ccc(F)cc3)c2O[C@H]1CN(C)Cc1ccncc1,inactive,inactive,inactive
Cc1ccc(N2C(=O)C(=O)NC2=S)cc1,inactive,inactive,inactive
C[C@@H]1CCCCO[C@H](CN(C)S(=O)(=O)c2ccc(F)cc2)[C@H](C)CN([C@H](C)CO)C(=O)c2cc(NC(=O)Nc3ccc(F)cc3)ccc2O1,inactive,active,inactive
CCCN(C)C[C@H]1OCCCC[C@H](C)Oc2ccc(NC(=O)NC3CCCCC3)cc2C(=O)N([C@@H](C)CO)C[C@H]1C,inactive,inactive,inactive

# Reference: the antibiotic and cytotoxicity screens of Wong et al. (2023)
